Among the data in PMC6212790 are binding signal values, retold here.

The other results are listed elsewhere or left out. At the low end of the ranking the order means little.

This test deals with T1, GST-Rok-C97-191 (UniProt O34857).
T1 sequence: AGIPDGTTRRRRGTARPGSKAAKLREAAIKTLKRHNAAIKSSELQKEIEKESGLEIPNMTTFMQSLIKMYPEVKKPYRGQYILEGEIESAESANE
Nature of the test: protein binding microarray.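 Further: rank score from −0.5 (least bound) to 0.5 (best bound).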 Conditions: Rok is a gene silencer of Bacillus subtilis; high values mean tight binding; most listed sequences are background and not binding sites; double strand, one strand shown.
In turn, GCACTCGA gave a binding signal of -0.0312 E-score.

Consider AGCCACTA, for which the binding signal is -0.0182 E-score.

Regarding GCAATACC, the binding signal is 0.182 E-score. As to TAGGCGGA, the binding signal is -0.195 E-score.

CCGGTTGA: the binding signal was -0.189 E-score. In the case of GAGATCCC it was -0.215 E-score. Then CGCACTGC, with 0.0347 E-score; and CCAAATAA, with 0.0547 E-score. CGCGGGAA showed a binding signal of -0.102 E-score. Then ATTTAGCG, with 0.199 E-score; and CCCATACG, with -0.00324 E-score. Regarding CGTCGCCA, the binding signal was -0.169 E-score. Regarding ATATAAGC, the binding signal amounted to 0.246 E-score. Then AATTTTGC, with 0.187 E-score.

CCCTCACC yielded a binding signal of -0.223 E-score. Then AAGATCTT, with 0.0434 E-score; and AGCTGAAC, with -0.0772 E-score.

In the case of TCGTTGAA, the binding signal came out at 0.0633 E-score.

Sequence AAACAAGG yielded a binding signal of -0.221 E-score. As for CGCCTGCC, the binding signal was -0.215 E-score. For the sequence TAGGTATA, the binding signal was found to be 0.287 E-score. In the case of CGACGCGA it was -0.16 E-score; in that of AAGAAGTC, -0.0567 E-score. Then GCTAGCAA, with 0.243 E-score; and AGCGATAC, with 0.0419 E-score. Consider TTAACAAA, for which the binding signal is 0.142 E-score. In the case of GCGCCGAA it was -0.219 E-score; in that of GCGCGCCC, -0.42 E-score. Then AGCGTACA, with 0.079 E-score; and AAAAAGTC, with -0.0811 E-score. Then GGTAATAA, with 0.274 E-score; and GCTATCAC, with 0.242 E-score; and GAGAGGTA, with 0.0151 E-score. ATGTGGGC showed a binding signal of -0.229 E-score. Then ACCGGAAA, with -0.1 E-score. Then GCACCACA, with 0.0153 E-score; and CTGCTGGA, with -0.128 E-score. In the case of AAAAAAAA it was 0.124 E-score. On to TCACGCAA, for which the binding signal is -0.0935 E-score. As to GTAAAAAC, the binding signal was 0.317 E-score. In the case of ACCATCGT it was -0.223 E-score.

As for AGGGTCAA, the binding signal is -0.131 E-score. GTTTTACA displayed a binding signal of 0.183 E-score. In the case of ATCATGCA it was -0.121 E-score; in that of CCGTTAAC, 0.0889 E-score; in that of AAGGACTA, -0.0152 E-score. In the case of ATACCAAC it was 0.216 E-score; in that of ACCGGTGA, -0.0892 E-score; in that of CCTGGCTA, -0.208 E-score. In the case of AATACGCA it was 0.0271 E-score. ACCTCTTA registered a binding signal of 0.191 E-score. Then AGGTCATC, with -0.184 E-score; and CAAATAAC, with 0.213 E-score; and ACGTTGAC, with -0.18 E-score.

Regarding ATCAGATC, the binding signal is -0.017 E-score. In the case of CATATTCG it was 0.013 E-score; in that of AGATTCAT, 0.222 E-score.

On to ATTTTCGA, for which the binding signal turned out to be 0.0387 E-score. In the case of CCTTTGGA it was -0.243 E-score; in that of CTGTCCTA, 0.0169 E-score. In turn, GGGACGAA showed a binding signal of -0.212 E-score. On to AGATCTGC, for which the binding signal was found to be 0.0617 E-score. As for CCTTTGGC, the binding signal was -0.32 E-score. In the case of ATAGGCAG it was 0.0945 E-score. Then CTTTGGAC, with -0.191 E-score; and GCGTACGC, with 0.0483 E-score; and GGCTGACC, with -0.187 E-score. In the case of ATACTGAG it was 0.0846 E-score; in that of CGTATGAA, 0.19 E-score; in that of ATCGCTTG, -0.0185 E-score. In turn, ACTGTACC came in with a binding signal of 0.0681 E-score. Then ATTACCGG, with 0.105 E-score. Then AGTCCGCC, with -0.302 E-score.

CATGTAAG displayed a binding signal of -0.0321 E-score. Then CAGATAAG, with 0.105 E-score; and CGGACTCC, with -0.205 E-score.

Sequence CGGATACC had a binding signal of 0.0204 E-score. As to ACCTGTTG, the binding signal was -0.14 E-score. In the case of ATTTAATC it was 0.16 E-score; in that of CGGCTTGA, -0.00751 E-score; in that of ATCGGGGG, -0.419 E-score. Turning to GACCGAAA, the binding signal was -0.00589 E-score. In the case of CCTGCTAA it was -0.086 E-score. For CTGCTGCC, the binding signal is -0.0976 E-score. In the case of CCGACCCG, the binding signal was -0.291 E-score. In the case of ACACGCTC it was -0.0114 E-score; in that of AGCAACCA, 0.0527 E-score. Sequence CCGGTGTC showed a binding signal of -0.252 E-score. Then GAGATCTA, with 0.255 E-score. In the case of ACTACTAG it was 0.361 E-score; in that of AAGCTAGG, -0.128 E-score. Then AAATGCAA, with 0.151 E-score; and CAGGATCA, with -0.117 E-score. ATTCGCGA yielded a binding signal of -0.0573 E-score. In the case of CTAATACA it was 0.238 E-score; in that of AGCGTGCC, -0.194 E-score.

In turn, CGGGTCGA had a binding signal of -0.259 E-score. Then ACCTCTAG, with -0.047 E-score. AACGCCAG: the binding signal is -0.0768 E-score. In the case of AATTTAGG it was 0.137 E-score; in that of CACGTTCG, -0.0519 E-score; in that of CCGAGCAA, -0.00146 E-score. In the case of GAAGCGAA it was -0.00304 E-score; in that of GACTGAAA, -0.192 E-score; in that of GCTGACAA, 0.0398 E-score. Then CTAATCAG, with -0.189 E-score; and ACGGGTGC, with -0.208 E-score. With ACGCCGGG, the binding signal was -0.244 E-score. In the case of GATGCCTA it was -0.0205 E-score.
